# Measurements as given in the supplement of paper PMC8285479.
# Structures can show the parent of a compound that is named as a salt. ± gives the standard deviation of the averaged measurements. Over roughly 1,900 compounds, “normalised cell viability (NPI; 0 = phenylarsine oxide control, 1 = DMSO control)” has its median near 1; the lowest 2% begin near 0.039. This is one part of the list.
# Tested on: NCI-H1944
# Test: normalised cell viability (NPI; 0 = phenylarsine oxide control, 1 = DMSO control) (fraction of DMSO control); NCI-H1944 is a non-small cell lung cancer line; higher = more viable cells (less compound toxicity)
# Details: 6 days
# [1] = glucocorticoid arm: hydrocortisone 2.75 uM co-treatment, compound 1 µM
# [2] = glucocorticoid arm: hydrocortisone 2.75 uM co-treatment, compound 5 µM
# [3] = glucocorticoid arm: hydrocortisone 2.75 uM pre-treated 2 days and continued, compound 1 µM
# [4] = glucocorticoid arm: hydrocortisone 2.75 uM pre-treated 2 days and continued, compound 5 µM
# [5] = glucocorticoid arm: vehicle, compound 1 µM
# [6] = glucocorticoid arm: vehicle, compound 5 µM
# 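Also: CTB read-out in 384-well plates, mean of triplicate wells, normalised per plate against 1 µM phenylarsine oxide and 0.1% DMSO, compounds added 24 h after seeding.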
SMILES,normalised cell viability [1],normalised cell viability [2],normalised cell viability [3],normalised cell viability [4],normalised cell viability [5],normalised cell viability [6]
CC(C=CC(=O)NO)=CC(C)C(=O)c1ccc(N(C)C)cc1 (stereo unspecified) [Trichostatin A (TSA)],0.0292 ± 0.0042,-0.000733 ± 0.0048,0.937 ± 0.098,0.00269 ± 0.00055,0.00709 ± 0.0011,8.2e-05 ± 0.00089
"O=C(O)[C@@H]1C[C@H](C(=O)O)N1 [cis-Azetidine-2,4-dicarboxylic acid]",0.992 ± 0.0044,0.97 ± 0.015,0.997 ± 0.012,1,0.9863 ± 0.0029,0.976 ± 0.011
CCN(CC)CC(=O)Nc1c(C)cccc1C [Lidocaine hydrochloride],0.985 ± 0.01,0.9687 ± 0.0071,0.995 ± 0.013,0.837 ± 0.23,0.9787 ± 0.0031,0.987 ± 0.02
CCN(CC)CC(=O)Nc1c(C)cccc1C [Lidocaine],1 ± 0.019,1.03 ± 0.017,1.017 ± 0.0058,1.017 ± 0.0058,0.995 ± 0.005,0.987 ± 0.019
NS(=O)(=O)c1cc2c(cc1Cl)NC(C1CC3C=CC1C3)NS2(=O)=O (stereo unspecified) [Cyclothiazide],1.01 ± 0.01,0.981 ± 0.0089,1.02 ± 0.023,0.992 ± 0.029,0.998 ± 0.011,0.995 ± 0.0017
S=C(S)N1CCCC1 [Ammonium pyrrolidinedithiocarbamate],1 ± 0.015,0.994 ± 0.024,1.01 ± 0.018,1.004 ± 0.01,1.002 ± 0.0076,0.416 ± 0.095
CSC(=N)NCCC[C@H](N)C(=O)O [S-Methyl-L-thiocitrulline acetate],1.003 ± 0.0058,0.984 ± 0.028,1.01 ± 0.01,0.989 ± 0.018,0.9847 ± 0.0051,0.994 ± 0.014
COc1cccc2c1C(=O)c1c(O)c3c(c(O)c1C2=O)C[C@@](O)(C(C)=O)C[C@@H]3O[C@H]1C[C@H](N)[C@H](O)[C@H](C)O1 [Daunorubicin hydrochloride; Daunorubicin HCl],0.0398 ± 0.0066,1.05 ± 0.011,0.587 ± 0.027,1.013 ± 0.0058,0.0031 ± 0.0017,1.007 ± 0.0058
CNC(=O)c1cc(Oc2ccc(NC(=O)Nc3ccc(Cl)c(C(F)(F)F)c3)cc2)ccn1 [Sorafenib (Nexavar)],0.993 ± 0.004,1.08 ± 0.011,0.995 ± 0.019,1.07 ± 0.025,0.9967 ± 0.0031,1.01 ± 0.015
CNC(=O)c1cc(Oc2ccc(NC(=O)Nc3ccc(Cl)c(C(F)(F)F)c3)cc2)ccn1 [Sorafenib],0.9767 ± 0.0085,0.522 ± 0.011,0.987 ± 0.012,0.695 ± 0.036,1.002 ± 0.0068,0.787 ± 0.018
CNC(=O)c1cc(Oc2ccc(NC(=O)Nc3ccc(Cl)c(C(F)(F)F)c3)cc2)ccn1 [Sorafenib tosylate; Sorafenib; Sorafenib Tosylate],1 ± 0.018,1.08 ± 0.029,1.01,1.03 ± 0.011,1.003 ± 0.0058,1.01
O=C(Nc1cccc(C(=O)Nc2ccc(S(=O)(=O)O)c3cc(S(=O)(=O)O)cc(S(=O)(=O)O)c23)c1)Nc1cccc(C(=O)Nc2ccc(S(=O)(=O)O)c3cc(S(=O)(=O)O)cc(S(=O)(=O)O)c23)c1,1.007 ± 0.0058,1.02 ± 0.021,1.003 ± 0.0063,1.07 ± 0.084,1.01,1.01 ± 0.017
"Ic1ccc(N2CCN(Cc3c[nH]c4ncccc34)CC2)cc1 [L-750,667 trihydrochloride]",0.969 ± 0.003,0.883 ± 0.014,0.99 ± 0.0044,0.999 ± 0.087,0.988 ± 0.011,0.998 ± 0.019
Nc1ncnc2c1nc(Br)n2C1OC2COP(=O)(O)O[C@@H]2C1O (stereo partly specified) [8-Bromo-cAMP sodium],0.9863 ± 0.004,0.901 ± 0.017,0.983 ± 0.001,0.96 ± 0.016,0.9617 ± 0.0067,0.9647 ± 0.0093
Cc1ncc(-c2ccnc(Nc3ccc(S(C)(=O)=O)cc3)n2)n1C(C)C,0.584 ± 0.057,0.062 ± 0.0037,0.705 ± 0.061,0.319 ± 0.083,0.191 ± 0.045,0.0177 ± 0.0014
CC(C)NC[C@@H](O)COc1ccc(CC(N)=O)cc1 [R(+)-Atenolol],0.998 ± 0.014,0.994 ± 0.014,0.998 ± 0.011,1 ± 0.023,0.995 ± 0.0046,0.998 ± 0.01
